{"source": "PubChem BioAssay AID1460", "about": "(National Center for Advancing Translational Sciences (NCATS), 2008)", "note": "Where “and” joins values, the source holds several entries; their conditions need not be identical. Equal entries are not always repeated. About 5,800 (2.1%) of roughly 270,000 compounds were called active. The inconclusive results got no clear call from the source; some entries with a clear call stand among them for comparison. Calls come from the whole dose curve; as a rule, active = well fitted inhibition curve with a large enough effect; inconclusive = small, poorly fitted or top-dose-only effect; inactive = flat fitted curve, though single readings scatter. Potencies beside an inconclusive call are fits to weak or partial responses and may not hold up. % is set by controls: 0 for no effect and ±100 for the full control effect; potency is the fitted concentration of half-maximal effect; tags give direction and shape of the fitted curve.", "data": [{"molecular_target": "Microtubule-associated protein tau (Homo sapiens) (UniProt P10636)", "sequence (P10636 whole entry, looked up, the tested form may be a part)": "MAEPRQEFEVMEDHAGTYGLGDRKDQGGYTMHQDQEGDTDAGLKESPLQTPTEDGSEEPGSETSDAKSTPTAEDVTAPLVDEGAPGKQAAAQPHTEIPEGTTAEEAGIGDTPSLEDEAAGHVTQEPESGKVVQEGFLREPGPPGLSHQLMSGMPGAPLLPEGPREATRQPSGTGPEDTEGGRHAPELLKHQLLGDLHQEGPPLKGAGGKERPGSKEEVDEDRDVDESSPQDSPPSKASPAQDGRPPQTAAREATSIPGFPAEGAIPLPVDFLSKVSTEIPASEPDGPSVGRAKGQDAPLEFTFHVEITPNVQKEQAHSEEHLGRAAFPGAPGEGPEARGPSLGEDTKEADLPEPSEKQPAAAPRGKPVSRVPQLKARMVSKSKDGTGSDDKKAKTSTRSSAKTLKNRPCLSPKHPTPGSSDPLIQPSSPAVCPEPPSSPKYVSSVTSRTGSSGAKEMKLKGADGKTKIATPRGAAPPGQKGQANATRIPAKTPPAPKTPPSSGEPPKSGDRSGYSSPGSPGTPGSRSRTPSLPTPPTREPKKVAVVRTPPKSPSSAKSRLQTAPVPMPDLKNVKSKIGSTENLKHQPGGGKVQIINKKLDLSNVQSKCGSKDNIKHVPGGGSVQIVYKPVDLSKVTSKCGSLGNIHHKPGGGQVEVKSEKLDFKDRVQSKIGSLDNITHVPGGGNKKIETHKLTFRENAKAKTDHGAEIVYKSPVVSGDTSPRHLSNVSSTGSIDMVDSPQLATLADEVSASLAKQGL", "experiment": "qHTS for Inhibitors of Tau Fibril Formation, Thioflavin T Binding; note: nearly all actives have a fitted effect of over 55% in size", "conditions": "recombinant tau K18 P301L (four-repeat tau fragment), heparin-induced fibrillization, ThT fluorescence; series mostly up to 57.4 µM; activity, negative = inhibition: at the top concentration", "how_it_was_run": "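Heparin-induced fibrillization of the P301L-mutant K18 repeat-domain fragment of human tau was followed by ThT binding in quantitative high-throughput format.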", "values": [{"smiles": "CCn1c(SCC(=O)N/N=C/c2cc(OC)c(O)c(OC)c2)nc2ccccc21", "Potency": "inconclusive: 15.8 µM [inhibitor, partial curve]"}, {"smiles": "Cn1c2ccc(Cl)cc2c2nc3ccccc3nc21", "Potency": "inconclusive: 10 µM [inhibitor, partial curve]"}, {"smiles": "O=C(Nc1nc2c(s1)COc1ccccc1-2)c1cccs1", "Potency": "inconclusive: 1.41 µM [inhibitor, full curve, poor fit]"}, {"smiles": "Cc1nc(NC(=O)c2ccccc2)sc1-c1csc(NCc2ccco2)n1", "Potency": "inconclusive: 8.91 µM [inhibitor, partial curve]"}, {"smiles": "O=C(COc1ccc(Cl)cc1Cl)Nc1ccc(Cl)cn1", "Potency": "inconclusive: 3.98 µM [inhibitor, single point]"}, {"smiles": "COc1ccc(NC(=O)c2ccco2)cc1NC(=O)C(C)Oc1ccc(Cl)cc1Cl", "note": "(stereo not given)", "Potency": "inconclusive: 14.1 µM [inhibitor, partial curve]"}, {"smiles": "CCn1cc(C(=O)O)c(=O)c2cc(F)c(N/N=C/c3ccccc3[N+](=O)[O-])cc21", "Potency": "inconclusive: 0.316 µM [inhibitor, full curve, poor fit]"}, {"smiles": "CCn1c(C)c(C2=CCN(S(=O)(=O)c3ccc(C)cc3)CC2)c2ccccc21", "Potency": "inconclusive: 25.1 µM [inhibitor, single point]"}, {"smiles": "Cc1ccccc1-n1sc2cc(F)ccc2c1=O", "Potency": "active: 10 µM"}, {"smiles": "O=C(O)c1ccc2c(c1)C(=O)N(c1ccc(Cl)cn1)C2=O", "Potency": "inconclusive: 17.8 µM [inhibitor, single point]"}, {"smiles": "O=C1c2cnc3nc(SCc4cccc(Cl)c4)nn3c2CC2c3ccccc3CCN12", "note": "(stereo not given)", "Potency": "inconclusive: 3.16 µM [inhibitor, partial curve, poor fit]"}, {"smiles": "O=C(Nc1nc(-c2ccc(Cl)s2)cs1)c1cccs1", "Potency": "inconclusive: 15.8 µM [inhibitor, partial curve]"}, {"smiles": "O=C(O)c1cccc(S(=O)(=O)Nc2ccc3c(c2)OCO3)c1", "Potency": "inconclusive: 25.1 µM [inhibitor, partial curve]"}, {"smiles": "C[C@]12CCC3C(CC=C4C[C@@H](O)CC[C@@]43C)C1CCC2[C@]1(C)CCC(=O)O1", "note": "(stereo not given in full)", "Potency": "inconclusive: 28.2 µM [inhibitor, single point]"}, {"smiles": "CCOC(=O)c1cccc(NC(=O)c2cc(S(=O)(=O)N3CCCC3)cn2C)c1", "activity, negative = inhibition": "inactive: 8.18%"}, {"smiles": "O=C(Cc1cccc(C(F)(F)F)c1)NCc1ccc(Cl)cc1", "activity, negative = inhibition": "inactive: 8.53%"}, {"smiles": "O=C(Cc1ccc(-n2c(=O)[nH]c3ccccc3c2=O)cc1)N1CCN(c2ccccc2)CC1", "activity, negative = inhibition": "inactive: 10.7%"}, {"smiles": "N/C(=N\\OC(=O)c1ccc(Cl)cc1Cl)c1ccccc1", "Potency": "inconclusive: 20 µM [inhibitor, single point]"}, {"smiles": "COc1ccc(CSc2nc(C)cc(C)c2C#N)cc1", "activity, negative = inhibition": "inactive: -10.1%"}, {"smiles": "CCSC1(SCC)N=C(N)C2(C#N)C(c3ccccc3)NC3=C(CCC3)C12C#N", "note": "(stereo not given)", "Potency": "inconclusive: 31.6 µM [inhibitor, partial curve, poor fit]"}, {"smiles": "O=C(CCCn1c(=O)c2cccn2c2ccccc21)Nc1cccc(Cl)c1", "Potency": "inconclusive: 2.82 µM [inhibitor, partial curve]"}, {"smiles": "CC(=O)N1c2ccccc2CC1C(=O)N1CCN(c2cccc(C)c2C)CC1", "note": "(stereo not given)", "activity, negative = inhibition": "inactive: 4.12%"}, {"smiles": "Cc1oc2ccc(O)c(CN3CCOCC3)c2c1C(=O)Nc1ccc(C(C)C)cc1", "Potency": "inconclusive: 1.78 µM [inhibitor, partial curve]"}, {"smiles": "CN(C)c1ccc(/C=C(/C#N)C(=O)NCc2ccccc2)o1", "Potency": "inconclusive: 15.8 µM [inhibitor, partial curve]"}, {"smiles": "COc1ccc(NC(=O)CC2Nc3cccc4cccc(c34)NC2=O)cc1", "note": "(stereo not given)", "Potency": "inconclusive: 20 µM [inhibitor, partial curve, poor fit] and inconclusive: 17.8 µM [inhibitor, partial curve]"}, {"smiles": "Cc1cc(C)c2nc(N3CCCC(C(=O)N4CCC(C(N)=O)CC4)C3)sc2c1", "note": "(stereo not given)", "Potency": "inconclusive: 44.7 µM [inhibitor, single point]"}, {"smiles": "CCOc1ccc(NC(=S)Nc2ccc(C)c([N+](=O)[O-])c2)cc1", "Potency": "inconclusive: 28.2 µM [inhibitor, partial curve]"}, {"smiles": "CN(Cc1ccccc1)C(=C(Cl)Cl)C(=C1NCCN1)[N+](=O)[O-]", "Potency": "inconclusive: 14.1 µM [inhibitor, partial curve, poor fit]"}, {"smiles": "CC1CC1c1ccc(/C=C(\\C#N)C(=O)Nc2ccccc2Cl)o1", "note": "(stereo not given)", "Potency": "inconclusive: 35.5 µM [inhibitor, single point]"}, {"smiles": "COc1ccc(NC(=O)c2sc3nc(Cc4ccccc4)cc(C(F)(F)F)c3c2N)cc1OC", "Potency": "inconclusive: 10 µM [inhibitor, partial curve]"}, {"smiles": "CN(Cc1ccccc1)CC(O)COc1ccc(CNCCOc2cccnc2)cc1", "note": "(stereo not given)", "activity, negative = inhibition": "inactive: 10.7%"}, {"smiles": "Clc1ccc(N2CCN(Cc3nnc(-c4ccc5c(c4)OCO5)o3)CC2)cc1", "Potency": "inconclusive: 7.08 µM [inhibitor, partial curve]"}, {"smiles": "COc1ccccc1N1CCN(C(=O)c2ccc(NS(=O)(=O)c3ccc(C)cc3)cc2)CC1", "Potency": "inconclusive: 20 µM [inhibitor, partial curve]"}, {"smiles": "Cc1ccc(N(CC(=O)NCCSc2nc3ccccc3s2)S(=O)(=O)c2ccccc2)c(C)c1", "Potency": "inconclusive: 14.1 µM [inhibitor, partial curve]"}, {"smiles": "COc1cc(/C=C(\\C#N)c2nc3ccccc3n2C)cc(OC)c1O", "Potency": "inconclusive: 14.1 µM [inhibitor, partial curve]"}, {"smiles": "N#Cc1c(N)n(-c2cccc(O)c2)c2nc3ccccc3nc12", "Potency": "inconclusive: 31.6 µM [inhibitor, single point]"}, {"smiles": "CC(=O)N1CCC(=NNc2ccc(S(N)(=O)=O)cc2[N+](=O)[O-])CC1", "Potency": "inconclusive: 3.55 µM [inhibitor, partial curve]"}, {"smiles": "CCC(=O)Nc1nc(=S)ss1", "Potency": "inconclusive: 35.5 µM [inhibitor, single point]"}, {"smiles": "c1cncc(Nc2nc(-c3ccncc3)cs2)c1", "Potency": "inconclusive: 17.8 µM [inhibitor, single point]"}, {"smiles": "COc1ccc(CN=C2NN=C(c3ccc(Cl)cc3)CS2)cc1", "Potency": "inconclusive: 14.1 µM [inhibitor, partial curve]"}]}]}
